The supplement of paper PMC8728848
The list shows a part of the results.

Assays:
Test in all cases: glycan array binding signal (z-score within array); higher = stronger binding
Conditions in all cases: glycan notation: IUPAC condensed, linker removed
[1] = biological target: GlcNAc(b1-4)GlcNAc(b1-4)GlcNAc(b1-4)GlcNAc(b1-4)GlcNAc(b1-4)GlcNAc
Summary of the method: (§1)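 Glycan array data came from 3228 arrays in the Consortium for Functional Glycomics database, and only arrays with an available protein sequence were kept. Glycan names were put into IUPAC-condensed notation, and columns mapping to the same glycan were averaged. The binding signal is a within-array Z-score, averaged across arrays of one protein sequence run at different concentrations or buffers and across linkers. A negative Z-score can be read as non-binding.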

[2] = biological target: GlcNAc(b1-4)[GlcNAc(b1-6)]GalNAc
Summary of the method: as §1

[3] = biological target: GlcNAc(b1-6)Gal(b1-4)GlcNAc
Summary of the method: as §1

GlcNAc(b1-6)GalNAc = biological target: GlcNAc(b1-6)GalNAc
Summary of the method: as §1

[4] = biological target: GlcNAc6S(b1-3)Gal(b1-4)GlcNAc
Summary of the method: as §1

Kdn(a2-3)Gal(b1-3)GalNAc = biological target: Kdn(a2-3)Gal(b1-3)GalNAc
Summary of the method: as §1

Kdn(a2-3)Gal(b1-3)GlcNAc = biological target: Kdn(a2-3)Gal(b1-3)GlcNAc
Summary of the method: as §1

Kdn(a2-3)Gal(b1-4)Glc = biological target: Kdn(a2-3)Gal(b1-4)Glc
Summary of the method: as §1

Kdn(a2-3)Gal(b1-4)GlcNAc = biological target: Kdn(a2-3)Gal(b1-4)GlcNAc
Summary of the method: as §1

[5] = biological target: Kdn(a2-3)Gal(b1-4)[Fuc(a1-3)]GlcNAc
Summary of the method: as §1

Kdn(a2-6)Gal(b1-4)GlcNAc = biological target: Kdn(a2-6)Gal(b1-4)GlcNAc
Summary of the method: as §1

[6] = biological target: Man(a1-2)Man(a1-2)Man(a1-3)Man
Summary of the method: as §1

[7] = biological target: Man(a1-2)Man(a1-2)Man(a1-6)[Man(a1-3)]Man
Summary of the method: as §1

Man(a1-2)Man(a1-3)Man = biological target: Man(a1-2)Man(a1-3)Man
Summary of the method: as §1

[8] = biological target: Man(a1-2)Man(a1-3)[Man(a1-2)Man(a1-6)]Man
Summary of the method: as §1

[9] = biological target: Man(a1-2)Man(a1-3)[Man(a1-2)Man(a1-6)]Man(a1-6)[Man(a1-2)Man(a1-2)Man(a1-3)]Man
Summary of the method: as §1

[10] = biological target: Man(a1-2)Man(a1-3)[Man(a1-2)Man(a1-6)]Man(a1-6)[Man(a1-2)Man(a1-2)Man(a1-3)]Man(b1-4)GlcNAc(b1-4)GlcNAc
Summary of the method: as §1

[11] = biological target: Man(a1-2)Man(a1-3)[Man(a1-6)]Man(a1-6)[Man(a1-2)Man(a1-3)]Man(b1-4)GlcNAc(b1-4)GlcNAc
Summary of the method: as §1

[12] = biological target: Man(a1-2)Man(a1-6)[Man(a1-3)]Man(a1-6)[Man(a1-2)Man(a1-2)Man(a1-3)]Man
Summary of the method: as §1

[13] = biological target: Man(a1-2)Man(a1-6)[Man(a1-3)]Man(a1-6)[Man(a1-2)Man(a1-2)Man(a1-3)]Man(b1-4)GlcNAc(b1-4)GlcNAc
Summary of the method: as §1

Man(a1-3)[Man(a1-6)]Man = biological target: Man(a1-3)[Man(a1-6)]Man
Summary of the method: as §1

[14] = biological target: Man(a1-3)[Man(a1-6)]Man(a1-6)[Man(a1-2)Man(a1-3)]Man(b1-4)GlcNAc(b1-4)GlcNAc
Summary of the method: as §1

[15] = biological target: Man(a1-3)[Man(a1-6)]Man(a1-6)[Man(a1-3)]Man
Summary of the method: as §1

[16] = biological target: Man(a1-3)[Man(a1-6)]Man(a1-6)[Man(a1-3)]Man(b1-4)GlcNAc(b1-4)GlcNAc
Summary of the method: as §1

[17] = biological target: Man(a1-3)[Man(a1-6)]Man(b1-4)GlcNAc(b1-4)GlcNAc
Summary of the method: as §1

[18] = biological target: Man(a1-3)[Man(a1-6)]Man(b1-4)GlcNAc(b1-4)[Fuc(a1-6)]GlcNAc
Summary of the method: as §1

Man(a1-6)Man = biological target: Man(a1-6)Man
Summary of the method: as §1

Man(b1-4)GlcNAc = biological target: Man(b1-4)GlcNAc
Summary of the method: as §1

MurNAc(b1-4)GlcNAc = biological target: MurNAc(b1-4)GlcNAc
Summary of the method: as §1

Neu5Ac(a2-3)Gal = biological target: Neu5Ac(a2-3)Gal
Summary of the method: as §1

[19] = biological target: Neu5Ac(a2-3)Gal(b1-3)GalNAc
Summary of the method: as §1

[20] = biological target: Neu5Ac(a2-3)Gal(b1-3)GalNAc(b1-3)Gal(a1-4)Gal(b1-4)Glc
Summary of the method: as §1

[21] = biological target: Neu5Ac(a2-3)Gal(b1-3)GalNAc(b1-4)Gal(b1-4)Glc
Summary of the method: as §1

[22] = biological target: Neu5Ac(a2-3)Gal(b1-3)GalNAc(b1-4)[Neu5Ac(a2-3)]Gal(b1-4)Glc
Summary of the method: as §1

[23] = biological target: Neu5Ac(a2-3)Gal(b1-3)GalNAc(b1-4)[Neu5Ac(a2-8)Neu5Ac(a2-3)]Gal(b1-4)Glc
Summary of the method: as §1

[24] = biological target: Neu5Ac(a2-3)Gal(b1-3)GalNAc6S
Summary of the method: as §1

[25] = biological target: Neu5Ac(a2-3)Gal(b1-3)GlcNAc
Summary of the method: as §1

[26] = biological target: Neu5Ac(a2-3)Gal(b1-3)GlcNAc(b1-2)Man
Summary of the method: as §1

[27] = biological target: Neu5Ac(a2-3)Gal(b1-3)GlcNAc(b1-2)Man(a1-3)[GlcNAc(b1-4)][Neu5Ac(a2-3)Gal(b1-3)GlcNAc(b1-2)Man(a1-6)]Man(b1-4)GlcNAc(b1-4)GlcNAc
Summary of the method: as §1

[28] = biological target: Neu5Ac(a2-3)Gal(b1-3)GlcNAc(b1-2)Man(a1-3)[Neu5Ac(a2-3)Gal(b1-3)GlcNAc(b1-2)Man(a1-6)]Man(b1-4)GlcNAc(b1-4)GlcNAc
Summary of the method: as §1

[29] = biological target: Neu5Ac(a2-3)Gal(b1-3)GlcNAc(b1-2)[Neu5Ac(a2-3)Gal(b1-3)GlcNAc(b1-4)]Man(a1-6)[Neu5Ac(a2-3)Gal(b1-3)GlcNAc(b1-2)Man(a1-3)]Man(b1-4)GlcNAc(b1-4)GlcNAc
Summary of the method: as §1

[30] = biological target: Neu5Ac(a2-3)Gal(b1-3)GlcNAc(b1-3)Gal(b1-3)GlcNAc
Summary of the method: as §1

[31] = biological target: Neu5Ac(a2-3)Gal(b1-3)GlcNAc(b1-3)Gal(b1-4)GlcNAc
Summary of the method: as §1

[32] = biological target: Neu5Ac(a2-3)Gal(b1-3)GlcNAc(b1-3)GalNAc
Summary of the method: as §1

[33] = biological target: Neu5Ac(a2-3)Gal(b1-3)GlcNAc(b1-6)GalNAc
Summary of the method: as §1

B1: PNGase F (Flavobacterium meningosepticum) (protein)
chain: GIPAPADNTVNIKTFDKVKNAFGDGLSQSAEGTFTFPADVTAVKTIKMFIKNECPNKTCDEWDRYANVYVKNKTTGEWYEIGRFITPYWVGTEKLPRGLEIDVTDFKSLLSGNTELKIYTETWLAKGREYSVDFDIVYGTPDYKYSAVVPVVQYNKSSIDGVPYGKAHTLALKKNIQLPTNTEKAYLRTTISGWGHAKPYDAGSRGCAEWCFRTHTIAINNSNTFQHQLGALGCSANPINNQSPGNWTPDRAGWCPGMAVPTRIDVLNNSLIGSTFSYEYKFQNWTNNGTNGDAFYAISSFVIAKSNTPISAPVVTNLDPHHHHHH
- glycan array binding signal (z-score) [1]: 0.061
- glycan array binding signal (z-score) [2]: -0.272
- glycan array binding signal (z-score) [3]: -0.067
- glycan array binding signal (z-score) (GlcNAc(b1-6)GalNAc): -0.018
- glycan array binding signal (z-score) [4]: -0.146
- glycan array binding signal (z-score) (Kdn(a2-3)Gal(b1-3)GalNAc): 0.37
- glycan array binding signal (z-score) (Kdn(a2-3)Gal(b1-3)GlcNAc): -0.39
- glycan array binding signal (z-score) (Kdn(a2-3)Gal(b1-4)Glc): 1.02
- glycan array binding signal (z-score) (Kdn(a2-3)Gal(b1-4)GlcNAc): -0.304
- glycan array binding signal (z-score) [5]: 0.935
- glycan array binding signal (z-score) (Kdn(a2-6)Gal(b1-4)GlcNAc): -0.034
- glycan array binding signal (z-score) [6]: 1.49
- glycan array binding signal (z-score) [7]: -0.391
- glycan array binding signal (z-score) (Man(a1-2)Man(a1-3)Man): 0.056
- glycan array binding signal (z-score) [8]: -0.274
- glycan array binding signal (z-score) [9]: -0.238
- glycan array binding signal (z-score) [10]: 0.516
- glycan array binding signal (z-score) [11]: -0.325
- glycan array binding signal (z-score) [12]: -0.048
- glycan array binding signal (z-score) [13]: -0.095
- glycan array binding signal (z-score) (Man(a1-3)[Man(a1-6)]Man): -0.016
- glycan array binding signal (z-score) [14]: -0.216
- glycan array binding signal (z-score) [15]: 1.07
- glycan array binding signal (z-score) [16]: -0.198
- glycan array binding signal (z-score) [17]: -0.177
- glycan array binding signal (z-score) [18]: -0.252
- glycan array binding signal (z-score) (Man(a1-6)Man): 0.466
- glycan array binding signal (z-score) (Man(b1-4)GlcNAc): 0.05
- glycan array binding signal (z-score) (MurNAc(b1-4)GlcNAc): -0.216
- glycan array binding signal (z-score) (Neu5Ac(a2-3)Gal): -0.034
- glycan array binding signal (z-score) [19]: 0.561
- glycan array binding signal (z-score) [20]: -0.331
- glycan array binding signal (z-score) [21]: 0.526
- glycan array binding signal (z-score) [22]: -0.289
- glycan array binding signal (z-score) [23]: -0.236
- glycan array binding signal (z-score) [24]: -0.204
- glycan array binding signal (z-score) [25]: -0.229
- glycan array binding signal (z-score) [26]: -0.187
- glycan array binding signal (z-score) [27]: -0.101
- glycan array binding signal (z-score) [28]: 0.681
- glycan array binding signal (z-score) [29]: -0.159
- glycan array binding signal (z-score) [30]: -0.313
- glycan array binding signal (z-score) [31]: -0.379
- glycan array binding signal (z-score) [32]: -0.293
- glycan array binding signal (z-score) [33]: -0.327
